Experimental findings from publication PMC10874396, “Spatiotemporal and direct capturing global substrates of lysine-modifying enzymes in living cells” (Nature Communications, 2024) are described below.

The target of the assay is T1, PatZ-L813o-NBAK (E. coli, UniProt P76594 1-886, L813o-NBAK, o-NBAK (o-nitrobenzyl alcohol-derived lysine, unnatural amino acid photo-crosslinker) at 813).
T1 construct: PatZ, protein lysine acetyltransferase of E. coli, amber codon at L813 read as o-NBAK; o-NBAK is a lysine derivative; also called PatZ-L813o-NBAK mutant; o-NBAK encoded enzyme; source: E. coli BL21(DE3), in living cells; also purified (Ni-NTA) for in vitro crosslinking
T1 sequence (looked up): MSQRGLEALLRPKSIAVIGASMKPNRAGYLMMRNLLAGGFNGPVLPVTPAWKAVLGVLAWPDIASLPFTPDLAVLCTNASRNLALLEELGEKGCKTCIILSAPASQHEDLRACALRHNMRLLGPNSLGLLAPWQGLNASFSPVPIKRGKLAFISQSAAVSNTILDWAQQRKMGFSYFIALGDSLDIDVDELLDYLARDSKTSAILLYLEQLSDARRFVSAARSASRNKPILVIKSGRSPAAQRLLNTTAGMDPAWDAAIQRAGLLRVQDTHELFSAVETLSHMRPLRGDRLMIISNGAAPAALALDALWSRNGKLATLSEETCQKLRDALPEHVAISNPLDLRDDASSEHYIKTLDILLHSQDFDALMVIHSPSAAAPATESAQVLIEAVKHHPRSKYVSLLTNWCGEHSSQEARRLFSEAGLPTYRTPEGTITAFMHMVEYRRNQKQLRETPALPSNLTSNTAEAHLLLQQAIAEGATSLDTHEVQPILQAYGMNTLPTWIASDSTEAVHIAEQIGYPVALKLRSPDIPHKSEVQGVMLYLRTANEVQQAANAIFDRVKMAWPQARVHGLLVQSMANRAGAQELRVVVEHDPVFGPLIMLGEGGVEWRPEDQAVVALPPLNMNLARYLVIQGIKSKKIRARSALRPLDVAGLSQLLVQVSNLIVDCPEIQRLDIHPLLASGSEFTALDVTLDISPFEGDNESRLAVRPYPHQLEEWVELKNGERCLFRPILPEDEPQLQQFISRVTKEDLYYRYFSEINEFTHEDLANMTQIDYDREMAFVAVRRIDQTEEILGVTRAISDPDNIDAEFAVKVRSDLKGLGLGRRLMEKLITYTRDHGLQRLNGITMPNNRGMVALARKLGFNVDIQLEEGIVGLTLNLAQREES
The experiment in a line: cross-linking; in vitro: purified o-NBAK enzyme mixed with purified partner protein in PBS 150 mM NaCl pH 7.5, 365 nm UV 15 min on ice, SDS-PAGE, extra band cut, LC-MS/MS of crosslinked peptides. To be noted: both partners purified.

B1: IscU (purified recombinant) (natural protein, E. coli, UniProt P0ACD4 1-128, looked up)
chain: MAYSEKVIDHYENPRNVGSFDNNDENVGSGMVGAPACGDVMKLQIKVNDEGIIEDARFKTYGCGSAIASSSLVTEWVKGKSLDEAQAIKNTDIAEELELPPVKIHCSILAEDAIKAAIADYKSKREAK
notes: IscU, E. coli; may be in the Supplementary Information
For B1, the binding result is given as “binds”.
